Assay results reported in PMC4336329 (PLoS ONE, 2015).
The campaign covered roughly 310,000 compounds. About 2,200 (0.71%) showed an effect of 50% or more. Effects have a minus sign here. The list shows a part of the results.

target: human ether-à-go-go-related gene (hERG) potassium channel (human, UniProt Q12809); experiment: primary screen, population patch clamp on CHO cells stably expressing hERG
Sequence (Q12809 whole entry, looked up): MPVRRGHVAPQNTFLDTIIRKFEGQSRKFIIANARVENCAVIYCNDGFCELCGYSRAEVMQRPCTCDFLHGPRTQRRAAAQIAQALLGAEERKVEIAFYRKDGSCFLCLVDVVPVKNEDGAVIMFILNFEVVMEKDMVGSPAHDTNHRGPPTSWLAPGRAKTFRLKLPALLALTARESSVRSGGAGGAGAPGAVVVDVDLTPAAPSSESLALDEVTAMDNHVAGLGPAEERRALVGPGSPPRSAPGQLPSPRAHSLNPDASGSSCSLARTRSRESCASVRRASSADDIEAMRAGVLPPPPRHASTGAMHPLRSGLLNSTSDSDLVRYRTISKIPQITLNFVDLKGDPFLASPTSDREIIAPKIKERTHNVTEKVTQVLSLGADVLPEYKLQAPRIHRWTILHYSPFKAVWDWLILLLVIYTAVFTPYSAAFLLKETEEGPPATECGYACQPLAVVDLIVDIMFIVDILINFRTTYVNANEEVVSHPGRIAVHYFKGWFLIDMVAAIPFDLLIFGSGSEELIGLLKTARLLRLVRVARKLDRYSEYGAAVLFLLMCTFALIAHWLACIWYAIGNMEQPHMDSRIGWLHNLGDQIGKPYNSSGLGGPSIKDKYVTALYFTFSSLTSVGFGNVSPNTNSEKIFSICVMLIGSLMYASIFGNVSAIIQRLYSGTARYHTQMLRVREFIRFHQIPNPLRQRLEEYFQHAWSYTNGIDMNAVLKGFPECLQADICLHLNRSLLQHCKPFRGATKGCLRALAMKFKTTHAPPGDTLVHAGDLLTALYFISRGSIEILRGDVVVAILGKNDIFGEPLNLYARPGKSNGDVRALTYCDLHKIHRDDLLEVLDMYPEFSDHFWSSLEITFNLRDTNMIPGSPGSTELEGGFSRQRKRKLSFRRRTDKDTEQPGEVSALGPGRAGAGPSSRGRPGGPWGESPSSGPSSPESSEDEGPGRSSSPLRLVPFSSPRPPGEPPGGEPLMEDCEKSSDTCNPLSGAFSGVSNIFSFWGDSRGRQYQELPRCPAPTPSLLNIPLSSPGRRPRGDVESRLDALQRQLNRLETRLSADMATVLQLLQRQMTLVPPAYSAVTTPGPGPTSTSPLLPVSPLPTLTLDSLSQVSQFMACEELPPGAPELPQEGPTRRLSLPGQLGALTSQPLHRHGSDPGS

Row | Structure (SMILES) | hERG current change (%, negative = inhibition) at 1uM
1 | CC1=C(C(=O)Nc2ccccc2C)C(c2ccc(C)o2)N2C(=O)CSC2=N1 (centres unmarked) | -10.9%
2 | Cc1ccccc1-c1nn[nH]n1 | 7.4%
3 | CC1CCN(S(=O)(=O)N2CCC(C(=O)NC3CCCC3)CC2)CC1 | 7.39%
4 | S=C(NCCc1ccccn1)Nc1cc(Cl)cc(Cl)c1 | 6.26%
5 | CCOc1ccccc1NC(=O)C1CCCN(S(=O)(=O)c2cccc3nsnc23)C1 (centres unmarked) | 3.98%
6 | Cc1ccc(NC(=O)c2c(C(F)(F)F)nn(C)c2Cl)cc1C | 12.8%
7 | Cc1[nH]c2ccc(C(=O)OC(C)C(=O)NC3(C#N)CCCCC3)cc2c1C (centres unmarked) | 13.7%
8 | COc1ccc(NC(=S)SC)cc1OC | 3.26%
9 | O=C(Nc1ccccc1C(=O)Nc1cccnc1)c1ccccc1 | 10.1%
10 | O=C(Nc1cccc2ccccc12)OCc1cncs1 | 11.5%
11 | COC(=O)c1sc(S(=O)(=O)NCCC(=O)O)c(C(=O)OC)c1C | 10.7%
12 | N#Cc1ccc(Oc2nc(C#N)cc(-c3ccccc3)n2)cc1 | -0.666%
13 | CCCCOC(=O)Nc1cc(OC)c(Cl)cc1OC | 1.4%
14 | CCOc1nc(Nc2ccc(Cl)cc2)nc(OCC)n1 | 12.1%
15 | O=C(CNC(=O)Cc1ccccc1)NCc1cccs1 | 9.79%
16 | COc1ccc(C2=Nc3ccc(Br)cc3C(c3ccccc3)N2CC(=O)NN)cc1 (centres unmarked) | -1.87%
17 | CC(C)C(C)NC(=O)CN1C(=O)NC2(CCc3ccccc3C2)C1=O (centres unmarked) | 17.7%
18 | CN(c1ccccc1)c1nc(N)c([N+](=O)[O-])c(Nc2ccccc2F)n1 | 22.4%
19 | Cc1ccc(CSc2nc(N)cc(=O)[nH]2)cc1 | 12.9%
20 | O=C(Nc1ccc(Nc2ccccc2)cc1)c1cccc(F)c1 | 15.5%
21 | N#C/C(=C(\O)c1cc(Cl)sc1Cl)c1nc2ccccc2[nH]1 | 11.6%
22 | O=C(C[n+]1cc(-c2ccc(F)cc2)n2c1CCC2)c1cccs1.[Br-] | 12.7%

Row | Structure (SMILES) | hERG current change (%, negative = inhibition) at 1uM
23 | N#Cc1ccc(CSc2nnc(NC(=O)C3CC(=O)N(c4ccc5c(c4)OCCO5)C3)s2)cc1 (centres unmarked) | 8.99%
24 | CC1=C(C(=O)OC(C)C)C(c2cccnc2)C2=C(CCCC2=O)N1 (centres unmarked) | 11.5%
25 | C=CCn1c(-c2cc(OC)c(OC)c(OC)c2)n[nH]c1=S | 6.57%
26 | Cc1ccc(C(=O)NCCN2CCOCC2)cc1S(=O)(=O)N1CCCCC1 | -6.46%
27 | O=C(Nc1cccc(-c2nnc(-c3ccccc3)o2)c1)c1ccc(Br)o1 | -17.3%
28 | CCc1nn(-c2cc(Oc3ccccc3)nc(-c3ccccc3)n2)c(N)c1C#N | 15.1%
29 | CCOC(=O)N1CCN(C(c2ccc(Cl)cc2)c2sc3nc(C)nn3c2O)CC1 (centres unmarked) | -14.8%
30 | O=C(Nc1ccccc1)Nc1cccc(Cl)c1Cl | 8.64%
31 | COC(c1ccccc1)c1nnc(CCC(=O)NCCCc2ccccc2)o1 (centres unmarked) | 18.5%
32 | CCOC(=O)CC(=O)CSc1nc2sc(C)cc2c(=O)n1Cc1ccco1 | -19%
33 | CCn1c2ccccc2c2cc(NC(=O)c3ccccc3-c3ccccc3C(=O)O)ccc21 | 7.55%
34 | Cc1ccc(-c2cnc(SCC(=O)N3CCCc4ccccc43)n2C)cc1 | 6.36%
35 | O=C1CCCC2=C1C(c1cccs1)n1nc(SCc3ccccc3F)nc1N2 (centres unmarked) | -2.44%
36 | O=C1c2cccc(OCC(=O)N3N=C(c4cccs4)CC3c3ccc(F)cc3)c2CCN1Cc1ccccc1 (centres unmarked) | 1.38%
37 | CCc1noc(C)c1C(=O)N1CCN(S(=O)(=O)c2ccc(Br)cc2)CC1 | -6.81%
38 | CC(C)(O)C(=O)NN(C(=O)c1ccccc1)c1cccc(Br)c1 | 11.3%
39 | O=C(Nc1cc(Cl)ccc1Oc1ccccc1)C1=COCCO1 | 14.2%
40 | C=CCN(c1ccccc1)S(=O)(=O)c1c(C)[nH]c(=O)[nH]c1=O | 12.2%
41 | Cc1c(NC(=O)COC(=O)c2ccc(F)c(S(=O)(=O)N3CCOCC3)c2)c(=O)n(-c2ccccc2)n1C | 8.5%
42 | COc1ccc(CN2CCN(C(=O)c3cc(C4CC4)nn3-c3ccccc3)CC2)cc1F | -2.45%
43 | Cl.Cn1nnnc1SCCNCc1ccc(Cl)cc1 | 2.19%
44 | O=C(c1ccccc1F)c1cc2c(cc1[N+](=O)[O-])OCCO2 | 5.36%
